Test results from article PMC6451091.
This is one part of the list. For part of these data: At the low end of the ranking the order means little. For part of these data: Measured with an extract: partners may take part in the binding.

Experiments:
Conditions in all cases: 20 mM HEPES pH 7.9, 100 mM NaCl, 1 mM DTT, 0.2 mg/mL BSA, 0.02% Triton X-100, 2% milk, 0.4 mg/mL salmon testes DNA; 1 h; temperature not stated; high values mean tight binding; double strand, one strand shown; sequences stand for … in GCCTAGCAC…GTGCTAGGTCTTGATTCGCTTGACGCTGCTG
PU.1 (IVT) = PU.1 (IVT) (UniProt P17947); experiment: protein-binding microarray (PBM)
[1] = biological target: PU.1 (endogenous, THP-1 nuclear extract) (UniProt P17947); experiment: nuclear extract protein-binding microarray (nextPBM)
[2] = biological target: T1, FLI1 (endogenous, THP-1 nuclear extract) (UniProt Q01543); experiment: as above
T1 sequence: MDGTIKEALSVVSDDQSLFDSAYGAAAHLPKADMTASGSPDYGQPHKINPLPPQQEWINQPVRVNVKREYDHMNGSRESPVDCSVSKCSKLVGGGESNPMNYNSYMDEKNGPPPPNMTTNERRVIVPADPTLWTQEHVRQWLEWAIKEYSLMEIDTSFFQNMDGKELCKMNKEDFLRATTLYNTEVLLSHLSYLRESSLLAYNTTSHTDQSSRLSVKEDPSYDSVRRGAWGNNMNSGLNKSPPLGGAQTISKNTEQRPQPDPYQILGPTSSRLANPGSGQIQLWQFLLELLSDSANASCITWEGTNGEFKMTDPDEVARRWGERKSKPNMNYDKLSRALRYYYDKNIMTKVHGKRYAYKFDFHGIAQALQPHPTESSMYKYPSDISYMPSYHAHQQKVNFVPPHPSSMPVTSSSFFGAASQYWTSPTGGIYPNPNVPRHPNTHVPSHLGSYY

| Sequence | binding signal (PU.1 (IVT)) | binding signal [1] | binding signal [2] |
| --- | --- | --- | --- |
| GGAATAAGGAAGTGATATAG | 5.99 z-score | 6.39 z-score | 2.37 z-score |
| GAAAAAGGGAAGTGGCTCAT | 7.13 z-score | 7.13 z-score | 2.76 z-score |
| GAGAAGAGGAAGTGCCCCGT | 6.56 z-score | 6.82 z-score | 3.7 z-score |
| CAAAAGGGGAAGTGCCACAC | 7.23 z-score | 7.2 z-score | 3.31 z-score |
| CGAAAAGGGAAGTCAGAGGC | 5.26 z-score | 5.84 z-score | 2.24 z-score |
| ATGAAGAGGAAGTCAAGAGG | 4.4 z-score | 4.94 z-score | 2.56 z-score |
| TCAAAGCAGAAGTGATAGCT | 2.8 z-score | 2.9 z-score | 0.596 z-score |
| CTAAAAGGGAAGTGGATGCT | 4.85 z-score | 5.42 z-score | 2.62 z-score |
| GAAAACAGGAAGTGTTGGTG | 7.78 z-score | 7.27 z-score | 5.11 z-score |
| AGGAGGAGGAAGTGGGGGGA | 4.05 z-score | 4.59 z-score | 2.67 z-score |
| TGGAGGAGGAAGTGGGTGGA | 4.58 z-score | 4.91 z-score | 2.84 z-score |
| GTGGGGAGGAAGTGGCCCCT | 2.88 z-score | 3.19 z-score | 2.82 z-score |
| GGGAAGGGGAAGTGGAGAGG | 4.97 z-score | 5.52 z-score | 2.49 z-score |
| GAAAAGAGGAACTGGGTTTA | 7.13 z-score | 7.04 z-score | 2.64 z-score |
| AAAAAAAGGAAGTACAGTAA | 6.54 z-score | 6.74 z-score | 3.27 z-score |
| CTTTTGAGGAACTGCCAGAC | 3.68 z-score | 3.83 z-score | 0.81 z-score |
| TGTAAAAGGAAGTCAGCTGA | 2.69 z-score | 2.54 z-score | 2.4 z-score |
| AGGAAGGGGAAGTTACGAGT | 6.12 z-score | 6.42 z-score | 3.23 z-score |
| AAAAAGAGGAAGTGAGCTTA | 8.51 z-score | 7.48 z-score | 4.25 z-score |
| CGCAAGGGGAACTACTGTGC | 3.07 z-score | 2.77 z-score | 0.6 z-score |
| GATTTGAGGAAGTGAAATGG | 6.75 z-score | 6.91 z-score | 2.89 z-score |

| Sequence | binding signal (PU.1 (IVT)) | binding signal [1] | binding signal [2] |
| --- | --- | --- | --- |
| CTTGGGAGGAAGTGTGGAGC | 2.65 z-score | 2.62 z-score | 2.22 z-score |
| CAAAAAGGGAAGTGGCTGCT | 6.29 z-score | 6.58 z-score | 2.94 z-score |
| GGAATCAGGAAGTGAAAAGA | 4.96 z-score | 5.81 z-score | 3.25 z-score |
| AAAAAAGGGAAGTGCAAGAT | 7.79 z-score | 7.14 z-score | 3.43 z-score |
| GCTAAAAGGAAGTGTCAAGT | 2.47 z-score | 2.33 z-score | 2.25 z-score |
| GACATGAGGAAGTCAGTAAA | 4.25 z-score | 4.36 z-score | 2.04 z-score |
| AATTTGAGGAAGTGGGAAAG | 6.62 z-score | 6.82 z-score | 3.16 z-score |
| GCAAAGGGGAACTGGACTGT | 3.71 z-score | 3.71 z-score | 1.23 z-score |
| TCAAAGGGGAAGTGAGAAAA | 5.37 z-score | 6.09 z-score | 2.99 z-score |
| AGAGAGGGGAAGTGAGTTGT | 4.31 z-score | 4.19 z-score | 2.32 z-score |
| AAATTAGGGAAGTGGTGAAT | 6.62 z-score | 6.58 z-score | 2.83 z-score |
| CAAAAGGGGAAGTCATTGTT | 7.51 z-score | 7.37 z-score | 3.06 z-score |
| AGAATGAGGAAGTGCCACAC | 7.23 z-score | 6.91 z-score | 3.26 z-score |
| GAATTGAGGAAGTGGGGGTG | 6.32 z-score | 6.89 z-score | 2.77 z-score |
| AGGGAAAGGAAGTGGTTGGA | 2.46 z-score | 2.26 z-score | 2.48 z-score |
| GAGAAGGGGAAGTGAGTGCC | 5.61 z-score | 6.26 z-score | 2.45 z-score |
| GAAAACAGGAAGTGCACACG | 7.67 z-score | 7.34 z-score | 5.16 z-score |
| TTTGGGAGGAAGTGGGCACT | 3.32 z-score | 3.12 z-score | 2.73 z-score |
| AGAATGGGGAAGTGGTGAAG | 6.62 z-score | 6.75 z-score | 2.52 z-score |
| TGGTTGGGGAAGTGGCCACT | 2.83 z-score | 3.17 z-score | 1.07 z-score |
| TAAAAGAGGAAGTCCTCTTG | 8.14 z-score | 7.3 z-score | 3.91 z-score |

| Sequence | binding signal (PU.1 (IVT)) | binding signal [1] | binding signal [2] |
| --- | --- | --- | --- |
| CCAAAGGGGAAGTTAGGGCT | 5.78 z-score | 6.28 z-score | 2.63 z-score |
| AGGAAGAGGAACTGGGCCCT | 4.24 z-score | 4.57 z-score | 2.35 z-score |
| GCTTTAAGGAACTACTGTGG | 2.81 z-score | 2.69 z-score | 0.836 z-score |
| CAAAAAGGGAAGTGGATGAT | 6.73 z-score | 6.61 z-score | 3.38 z-score |
| ATAAAGAGGAAGTGAAATTA | 8.11 z-score | 7.52 z-score | 4.05 z-score |
| AAAGAAAGGAAGTGGCCTGT | 2.71 z-score | 2.56 z-score | 2.42 z-score |
| GAAAGAAGGAAGTGCCAGGC | 4.47 z-score | 5.19 z-score | 1.99 z-score |
| AGAAAGAGGAAGTGACACTT | 8.52 z-score | 7.42 z-score | 4.16 z-score |
| GAAAAGGGGAACTGCTGAAT | 6.33 z-score | 6.61 z-score | 2.25 z-score |
| TAAAGGAGGAAGTGAAGAAG | 5.7 z-score | 6.06 z-score | 3.01 z-score |
| CGAAAGGGGTAGTGCTAAAC | 1.12 z-score | 1.09 z-score | -0.105 z-score |
| GGAGTGAGGAAGTGAGACAG | 3.5 z-score | 3.13 z-score | 1.94 z-score |
| ACAAAAAGGGACTGTGCCCC | -0.214 z-score | 0.07 z-score | -0.864 z-score |
| AAAATGAGGAAGTAGAGGGA | 7.96 z-score | 7.16 z-score | 3.49 z-score |
| TTAAACAGGAACTGGAGTCA | 3.39 z-score | 3.31 z-score | 2.1 z-score |
| AGGAAAAGGAAGTGGCAGCA | 3.84 z-score | 3.5 z-score | 2.69 z-score |
| CAAATAAGGAAGTGGGTGTT | 6.04 z-score | 6.31 z-score | 3.37 z-score |
| ACAAGGGGGAAGTGGGAGCA | 3.63 z-score | 3.85 z-score | 1.58 z-score |
| GGGATGGGGAAGTCCTCAAG | 4.1 z-score | 4.01 z-score | 1.37 z-score |
| AAAATGAGGAACTGAGCTGT | 6.74 z-score | 6.91 z-score | 2.28 z-score |
| CATTTGAGGAAGTGGGAACA | 6.05 z-score | 6.37 z-score | 2.44 z-score |
